# Reference: PubChem BioAssay AID463173 (ICCB-Longwood Screening Facility, Harvard Medical School, 2010)
# The whole screen tested about 52,000 compounds, of which about 1,700 (3.3%) were called active. No stated cut-off is given here; in the data, active means survival mostly below about 52% (no sharp cut-off); inactive means mostly above about 56%. This is one part of the list.
# Tested on: Wild type
# Assay: S. aureus survival, RN4220 and DeltatarO strains – OD600, teichoic acid synthesis inhibitors, primary screen (AID 463173)
# Conditions: S. aureus RN4220 wild type/DeltatarO growth, OD600, 18 h, hits give low values, screened at 18.75 µg/mL (by protocol)
row,SMILES,survival
1,COc1ccc(Cl)cc1NC(=O)c1cc(C)nn1-c1ccccc1,inactive: 81%
2,COc1cccc(N2CCN(S(=O)(=O)c3ccc4c(c3)CCCN4C(C)=O)CC2)c1,inactive: 88%
3,CCOC(=O)c1c(NC(=O)c2cc(=O)c3ccc(C)cc3o2)sc(C)c1C,inactive: 111%
4,COc1ccc(CCN2CCC(CNC(=O)c3cnn(-c4ccccc4)c3C3CCN(C(=O)OC(C)(C)C)CC3)CC2)cc1,inactive: 97%
5,Cc1nn(C(C)C(=O)NC2CCC(C)CC2)c(=O)c2cc3sccc3n12 (configuration not stated),inactive: 81%
6,COc1ccccc1N1CCN(C(=O)c2cn(C)c3ccc(S(=O)(=O)N4CCOCC4)cc3c2=O)CC1,inactive: 75%
7,CN(C)c1ccc(CNC(=O)CCCn2ccc3cc(S(=O)(=O)N4CCCC4)ccc32)cc1,active: 0%
8,COc1ccc(OC)c(S(=O)(=O)N2CC=C(c3c(C)n(CC(=O)N4CCCC4)c4ccccc34)CC2)c1,inactive: 83%
9,CCOc1ccc(C2C(C(=O)Nc3ccc(Cl)cc3)=C(C)Nc3nc(C(F)(F)F)nn32)cc1 (configuration not stated),inactive: 37%
10,O=S(=O)(c1ccc(Cl)cc1)c1nnn2c1nc(N1CCCCC1)c1sccc12,inactive: 76%
11,Cc1ccccc1NC(=O)CN(c1ccc(Cl)cc1Cl)S(=O)(=O)c1ccccc1,inactive: 62%
12,Cc1ccc(C)c(N/C=C(\C#N)c2nc3ccccc3o2)c1,inactive: 108%
13,Fc1ccccc1-n1ncc2c1ncn1nc(Cc3ccccc3)nc21,inactive: 79%
14,Cc1ccc2c(c1)-c1c(c(C(=O)N3CCN(c4cc(Cl)ccc4C)CC3)nn1C)CS2,inactive: 73%
15,CC(CNC(=O)CCS(=O)(=O)c1ccc2c(c1)oc(=O)n2C)c1ccccc1 (configuration not stated),inactive: 82%
16,Cc1cccc(NC(=O)N2CCC(CN3CCOCC3)CC2)c1C,inactive: 93%
17,Cc1cn(C)c(CC(=O)N2CCN(c3ccccc3F)CC2)c1C(=O)O,inactive: 69%
18,COc1ccc(-c2nc3sc(CCNC(=O)c4ccccc4C)c(C)n3n2)cc1,inactive: 73%
19,O=S(=O)(NCc1ccccc1Cl)c1ccc(N2CCCCS2(=O)=O)cc1,inactive: 152%
20,O=C(Cn1nnc(-c2ccncc2)n1)NCCc1ccccc1,inactive: 99%
21,Cc1c(C(=O)NCCc2ccc(S(N)(=O)=O)cc2)sc2nc3n(c(=O)c12)CCCC3,inactive: 87%
22,Cc1cccn2c(=O)c3cc(C(=O)N(Cc4ccccc4)C(C)C)sc3nc12,inactive: 77%

row,SMILES,survival
1,Cc1cccc(C(=O)Nc2nc(-c3nnn(-c4cc(F)ccc4F)c3C)ns2)c1,inactive: 133%
2,CCCCN(C)CCNC(=O)c1ccc2c(c1)NC(=O)CN2,inactive: 78%
3,CC1CCN(S(=O)(=O)c2ccc3c(c2)N(CC(=O)O)C(=O)CO3)CC1,inactive: 78%
4,COc1ccc(-c2cc(C(F)(F)F)n3nc(C(=O)NCC45CC6CC(CC(C6)C4)C5)cc3n2)cc1OC,inactive: 129%
5,Cc1cccc(Cn2c(C)c(CNC3CCCCC3)c(C(=O)O)c2C)c1,inactive: 91%
6,Cc1cc(Cl)ccc1NC(=O)C1CCN(c2nnc(-n3c(C)ccc3C)s2)CC1,inactive: 81%
7,CCOC(=O)c1ccccc1NC(=O)N1CCOc2ccc(Cl)cc21,inactive: 112%
8,Cc1ccc2ccc3cc(C(=O)N4CCN(c5ccccc5)CC4)nc3c2[nH]1,inactive: 128%
9,CC(=O)Nc1ccc(-c2nnc(SCC(=O)c3ccc([N+](=O)[O-])cc3)o2)cc1,inactive: 87%
10,Cc1ccc(NC(=O)C(=O)NCC(c2cccnc2)N2CCN(Cc3ccccc3)CC2)cc1 (configuration not stated),inactive: 85%
11,CCc1ccccc1NC(=O)CSc1nc2c(oc3ccccc32)c(=O)n1-c1ccccc1F,inactive: 90%
12,O=C(O)CCC(=O)CCN1CCCCC1,inactive: 108%
13,Cc1cc(C)c(NC(=O)CSc2nc(-c3ccc(F)cc3)nc3c2Cc2c(CO)cnc(C)c2O3)c(C)c1,inactive: 83%
14,O=c1c2c([nH]c3ccccc13)CCCCC2,inactive: 101%
15,O=C(Cn1ncc2c3ccccc3n(Cc3ccccc3F)c2c1=O)N1CCCCC1,inactive: 127%
16,CC(C)CN(CCCNC(=O)CN1N=C(c2ccccc2)CCC1=O)CC(C)C,inactive: 134%
17,CCOc1ccc(CCNC(=O)c2[nH]c3cc(OC)ccc3c2Sc2ccccc2)cc1OCC,inactive: 81%
18,CCOC(=O)C1=C(CN(CC)Cc2ccccc2)NC(=O)NC1c1ccc(OC(C)C)cc1 (configuration not stated),inactive: 72%
19,COc1ccccc1CNC(=O)c1ccc(N2CCCC2)c(NC(=O)NCc2ccc(F)cc2)c1,inactive: 121%
20,CCCCSCCCNC(=O)C1CCN(Cc2nc(-c3cccc(Br)c3)oc2C)CC1,inactive: 90%
21,COc1ccc(N2CCN(c3ccc(-c4nc(-c5cccc(C)c5)no4)cc3[N+](=O)[O-])CC2)cc1,inactive: 89%
22,O=C(NCCC1=CCCCC1)c1ccc2c(c1)N(Cc1cccc(Cl)c1)C(=O)c1ccccc1S2(=O)=O,inactive: 73%

row,SMILES,survival
1,CC(=O)c1cc2c(cc1NC(=O)c1cnn(-c3ccc(C)cc3)c1-n1cccc1)OCO2,inactive: 68%
2,CCOc1ccc(C(=O)N2CCN(CCc3ccccn3)CC2)cc1,inactive: 84%
3,Cc1nn(-c2ccc(N3CCCC3)nn2)c(C)c1CCC(=O)NCc1ccc(OC(C)C)cc1,inactive: 69%
4,Cn1c(=O)[nH]c(=O)c2c1nc1n2CCN1c1ccccc1,inactive: 153%
5,CCOc1ccc(S(=O)(=O)c2cn(Cc3ccc(OC)cc3)c3ccc(F)cc3c2=O)cc1,inactive: 77%
6,CCOc1ccc(NC(=O)Cn2c(=O)cc(C)c3c(C)nn(-c4cccc(Cl)c4C)c32)cc1,inactive: 146%
7,CCOC(=O)CC(NC(=O)CCc1c(C)nc2ncnn2c1C)c1ccc(OC(C)C)cc1 (configuration not stated),inactive: 127%
8,CC(C)c1ccc(NC(=O)CCNS(=O)(=O)c2ccc3c(c2)CCCC(=O)N3)cc1,inactive: 98%
9,CCOC(=O)c1ccccc1NC(=O)CSc1cn(CC(=O)N2CCOCC2)c2ccccc12,inactive: 103%
10,COc1ccc(CNC(=O)C2CCC(CNS(=O)(=O)c3cccs3)CC2)cc1 (configuration not stated),inactive: 78%
11,Cc1ccccc1CSc1nc2cccnc2n1Cc1ccc(C(=O)NC2CC2)cc1,inactive: 71%
12,CCOc1ccc(Nc2nc(C)c(NC(=O)c3cccc(OC)c3)c(Nc3ccc(OCC)cc3)n2)cc1,inactive: 128%
13,Cc1ccc(-c2nc(S(=O)(=O)c3ccc(C)cc3)c(N3CCCCCC3)o2)cc1,inactive: 84%
14,Cc1ccc(N2CCN(S(=O)(=O)c3nnc(NC(=O)c4ccc(C(C)C)cc4)s3)CC2)cc1,inactive: 82%
15,CCCn1c(=S)[nH]c2c1c(=O)[nH]c(=O)n2C,inactive: 101%
16,Cc1cc(=O)[nH]c2nnc(SCc3ccc(Cl)cc3)n12,inactive: 152%
17,COC(=O)C1=C(c2ccccc2)c2ccccc2S(=O)(=O)N1CC(=O)Nc1ccc(OC)cc1OC,inactive: 154%
18,CCOc1ccc(NC(=O)CN2C(C(=O)OC)=C(c3ccccc3)c3cc(Cl)ccc3S2(=O)=O)cc1,inactive: 61%
19,COc1ccc(C(C)C)cc1S(=O)(=O)N1CC(C)OC(C)C1 (configuration not stated),inactive: 109%
20,COc1ccccc1NC(=O)C1CCN(S(=O)(=O)c2cn(C)cn2)CC1,inactive: 69%
21,COc1ccccc1-c1cc(NC(=O)COc2ccc(C)c(C)c2)n(-c2ccccc2)n1,inactive: 71%
22,O=C(NCc1ccccc1)C1CCN(S(=O)(=O)c2ccc3[nH]c(=O)ccc3c2)CC1,inactive: 79%

row,SMILES,survival
1,COc1ccc(NC(=O)c2c(NCc3cccc(F)c3)sc3c2CCCC3)c(OC)c1,inactive: 66%
2,Cc1cc2nc(-c3cccc(NC(=O)COc4ccc(Cl)c(C)c4)c3)oc2cc1C,inactive: 66%
3,Cc1cccc(N(C)S(=O)(=O)c2c(C(=O)N3CCCCCC3)c(C)n(C)c2C)c1,inactive: 71%
4,Cc1ccc(Cl)cc1-n1ncc2c(N3CCC(C)CC3)ncnc21,inactive: 121%
5,Cc1ccc(CNC(=O)CN2CCN(Cc3ccc(F)cc3)C2=O)cc1,inactive: 89%
6,COc1ccc(CN(Cc2cccnc2)C(=S)NCc2ccco2)cc1OC,inactive: 123%
7,CCOc1ccc(CCNC(=O)c2cnc3sc(N4CCCCCC4)nn3c2=O)cc1,inactive: 69%
8,Cc1cccc2c1-c1sc(C(=O)N3CCN(c4cccc(Cl)c4)CC3)cc1CO2,inactive: 87%
9,COc1ccc(-c2cc(C(F)(F)F)nc(SCC(=O)NCc3ccc(Cl)cc3)n2)cc1,inactive: 83%
10,CC(C)OCc1cc(CN2CCN(c3ccccc3)CC2)c(O)c2ncccc12,inactive: 58%
11,COc1ccc(OC)c(NC(=O)CN2CCCN(Cc3cc(C)ccc3C)S2(=O)=O)c1,inactive: 72%
12,O=C(CN1C(=O)C2(SCC(=O)N2c2ccc(F)c(F)c2)c2ccccc21)Nc1ccccc1F (configuration not stated),inactive: 70%
13,O=C(CSc1nccn1Cc1ccc(Cl)cc1)NCc1ccccc1,inactive: 22%
14,COc1ccccc1CNC(=O)C(CC(C)C)N1Cc2ccccc2C1=O (configuration not stated),inactive: 76%
15,CCOC(=O)c1ccc(N2C(=O)c3n[nH]c(-c4ccco4)c3C2c2ccc(F)cc2)cc1 (configuration not stated),active: 9%
16,CC1=C(C(=O)Nc2ccc(F)cc2F)C2(CCCCCC2)OC1=O,inactive: 77%
17,Cc1cccc(CC(=O)NCCc2csc(-c3ccc(C(F)(F)F)cc3)n2)c1,inactive: 75%
18,Cc1ccc(C)c(C(=O)COC(=O)CCCC(=O)Nc2cc(C(F)(F)F)ccc2Cl)c1,inactive: 45%
19,CCOC(=O)c1cccc(NC(=O)N2CCC(CN3CCCCCC3)CC2)c1,inactive: 76%
20,Cn1c(=O)[nH]c(=O)c2c1nc(N1CCCC1)n2CCO,inactive: 108%
21,CNC(=O)C1CCC(Cn2c(=O)c3sccc3n(CC(=O)Nc3cc(F)ccc3F)c2=O)CC1 (configuration not stated),inactive: 71%
